# According to the supplement of paper PMC8728848:
# Some of the results follow.
# B1: DrGal3 (Danio rerio) (protein)
# chain: MDLSDALDAPPQQNNQQAGGPVWPGQPANPVWPGQPANPTWPGQPNQPAWPGQPNQQWPGQPGQPTAPGWPGPAPQTGPYGAPGQAPQVLTVPLDFPLQNGAYNKMLITINGEVKPNAKQFTVNLRRGNDIAFHINPRFSEGGKPVIVRNSMIGNNWGREERELPSFPFVPGKPFEMKILITDTEYKVAVNKSHLLEFKHRVFELNQITGLSIYNDVTLSTVNVETLQ
# What was measured:
# Experiment in all cases: glycan array binding signal (z-score within array); higher = stronger binding
# Settings in all cases: glycan notation: IUPAC condensed, linker removed
# [1] = molecular target: Neu5Ac(a2-3)Gal(b1-4)GlcNAc(b1-2)Man(a1-3)[Neu5Ac(a2-3)Gal(b1-4)GlcNAc(b1-2)Man(a1-6)]Man(b1-4)GlcNAc(b1-4)[Fuc(a1-6)]GlcNAc
# How it was run: (§1)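 Columns mapping to the same glycan were averaged after glycan names were converted to IUPAC-condensed notation. The data come from 3228 arrays in the Consortium for Functional Glycomics database, limited to those with an available protein sequence. Binding is reported as a within-array Z-score averaged across arrays of one protein sequence and across linkers.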
# [2] = molecular target: Neu5Ac(a2-3)Gal(b1-4)GlcNAc(b1-2)Man(a1-3)[Neu5Ac(a2-6)Gal(b1-4)GlcNAc(b1-2)Man(a1-6)]Man(b1-4)GlcNAc(b1-4)GlcNAc
# How it was run: as §1
# [3] = molecular target: Neu5Ac(a2-3)Gal(b1-4)GlcNAc(b1-2)[Neu5Ac(a2-3)Gal(b1-4)GlcNAc(b1-4)]Man(a1-3)[GlcNAc(b1-4)][Neu5Ac(a2-3)Gal(b1-4)GlcNAc(b1-2)[Neu5Ac(a2-3)Gal(b1-4)GlcNAc(b1-6)]Man(a1-6)]Man(b1-4)GlcNAc(b1-4)GlcNAc
# How it was run: as §1
# [4] = molecular target: Neu5Ac(a2-3)Gal(b1-4)GlcNAc(b1-2)[Neu5Ac(a2-3)Gal(b1-4)GlcNAc(b1-4)]Man(a1-3)[GlcNAc(b1-4)][Neu5Ac(a2-3)Gal(b1-4)GlcNAc(b1-4)Man(a1-6)]Man(b1-4)GlcNAc(b1-4)GlcNAc
# How it was run: as §1
# [5] = molecular target: Neu5Ac(a2-3)Gal(b1-4)GlcNAc(b1-2)[Neu5Ac(a2-3)Gal(b1-4)GlcNAc(b1-6)]Man(a1-6)[Neu5Ac(a2-3)Gal(b1-4)GlcNAc(b1-2)Man(a1-3)]Man(b1-4)GlcNAc(b1-4)GlcNAc
# How it was run: as §1
# [6] = molecular target: Neu5Ac(a2-3)Gal(b1-4)GlcNAc(b1-2)[Neu5Ac(a2-3)Gal(b1-4)GlcNAc(b1-6)]Man(a1-6)[Neu5Ac(a2-3)Gal(b1-4)GlcNAc(b1-2)Man(a1-3)][GlcNAc(b1-4)]Man(b1-4)GlcNAc(b1-4)GlcNAc
# How it was run: as §1
# [7] = molecular target: Neu5Ac(a2-3)Gal(b1-4)GlcNAc(b1-3)Gal
# How it was run: as §1
# [8] = molecular target: Neu5Ac(a2-3)Gal(b1-4)GlcNAc(b1-3)Gal(b1-3)GlcNAc
# How it was run: as §1
# [9] = molecular target: Neu5Ac(a2-3)Gal(b1-4)GlcNAc(b1-3)Gal(b1-4)GlcNAc
# How it was run: as §1
# [10] = molecular target: Neu5Ac(a2-3)Gal(b1-4)GlcNAc(b1-3)Gal(b1-4)GlcNAc(b1-2)Man(a1-3)[Neu5Ac(a2-3)Gal(b1-4)GlcNAc(b1-3)Gal(b1-4)GlcNAc(b1-2)Man(a1-6)]Man(b1-4)GlcNAc(b1-4)GlcNAc
# How it was run: as §1
# [11] = molecular target: Neu5Ac(a2-3)Gal(b1-4)GlcNAc(b1-3)Gal(b1-4)GlcNAc(b1-3)Gal(b1-4)GlcNAc
# How it was run: as §1
# [12] = molecular target: Neu5Ac(a2-3)Gal(b1-4)GlcNAc(b1-3)Gal(b1-4)GlcNAc(b1-3)Gal(b1-4)GlcNAc(b1-2)Man(a1-3)[Neu5Ac(a2-3)Gal(b1-4)GlcNAc(b1-3)Gal(b1-4)GlcNAc(b1-3)Gal(b1-4)GlcNAc(b1-2)Man(a1-6)]GalNAc
# How it was run: as §1
# [13] = molecular target: Neu5Ac(a2-3)Gal(b1-4)GlcNAc(b1-3)Gal(b1-4)GlcNAc(b1-3)GalNAc
# How it was run: as §1
# [14] = molecular target: Neu5Ac(a2-3)Gal(b1-4)GlcNAc(b1-3)Gal(b1-4)GlcNAc(b1-3)[Neu5Ac(a2-3)Gal(b1-4)GlcNAc(b1-3)Gal(b1-4)GlcNAc(b1-6)]GalNAc
# How it was run: as §1
# [15] = molecular target: Neu5Ac(a2-3)Gal(b1-4)GlcNAc(b1-3)Gal(b1-4)GlcNAc(b1-6)[Gal(b1-3)]GalNAc
# How it was run: as §1
# [16] = molecular target: Neu5Ac(a2-3)Gal(b1-4)GlcNAc(b1-3)Gal(b1-4)[Fuc(a1-3)]GlcNAc
# How it was run: as §1
# [17] = molecular target: Neu5Ac(a2-3)Gal(b1-4)GlcNAc(b1-3)GalNAc
# How it was run: as §1
# [18] = molecular target: Neu5Ac(a2-3)Gal(b1-4)GlcNAc(b1-3)[Neu5Ac(a2-3)Gal(b1-4)GlcNAc(b1-6)]GalNAc
# How it was run: as §1
# [19] = molecular target: Neu5Ac(a2-3)Gal(b1-4)GlcNAc(b1-6)GalNAc
# How it was run: as §1
# [20] = molecular target: Neu5Ac(a2-3)Gal(b1-4)GlcNAc(b1-6)[Gal(b1-3)]GalNAc
# How it was run: as §1
# [21] = molecular target: Neu5Ac(a2-3)Gal(b1-4)GlcNAc(b1-6)[Neu5Ac(a2-3)Gal(b1-3)]GalNAc
# How it was run: as §1
# [22] = molecular target: Neu5Ac(a2-3)Gal(b1-4)GlcNAc6S
# How it was run: as §1
# [23] = molecular target: Neu5Ac(a2-3)Gal(b1-4)[Fuc(a1-3)]GlcNAc
# How it was run: as §1
# [24] = molecular target: Neu5Ac(a2-3)Gal(b1-4)[Fuc(a1-3)]GlcNAc(b1-2)Man
# How it was run: as §1
# [25] = molecular target: Neu5Ac(a2-3)Gal(b1-4)[Fuc(a1-3)]GlcNAc(b1-3)Gal
# How it was run: as §1
# [26] = molecular target: Neu5Ac(a2-3)Gal(b1-4)[Fuc(a1-3)]GlcNAc(b1-3)Gal(b1-4)GlcNAc
# How it was run: as §1
# [27] = molecular target: Neu5Ac(a2-3)Gal(b1-4)[Fuc(a1-3)]GlcNAc(b1-3)Gal(b1-4)[Fuc(a1-3)]GlcNAc(b1-3)Gal(b1-4)[Fuc(a1-3)]GlcNAc
# How it was run: as §1
# [28] = molecular target: Neu5Ac(a2-3)Gal(b1-4)[Fuc(a1-3)]GlcNAc(b1-3)GalNAc
# How it was run: as §1
# [29] = molecular target: Neu5Ac(a2-3)Gal(b1-4)[Fuc(a1-3)]GlcNAc(b1-6)[Gal(b1-3)]GalNAc
# How it was run: as §1
# [30] = molecular target: Neu5Ac(a2-3)Gal(b1-4)[Fuc(a1-3)]GlcNAc(b1-6)[Neu5Ac(a2-3)Gal(b1-3)]GalNAc
# How it was run: as §1
# [31] = molecular target: Neu5Ac(a2-3)Gal(b1-4)[Fuc(a1-3)]GlcNAc6S
# How it was run: as §1
# [32] = molecular target: Neu5Ac(a2-3)Gal6S(b1-4)GlcNAc
# How it was run: as §1
# [33] = molecular target: Neu5Ac(a2-3)Gal6S(b1-4)[Fuc(a1-3)]GlcNAc
# How it was run: as §1
# [34] = molecular target: Neu5Ac(a2-3)GalNAc
# How it was run: as §1
# [35] = molecular target: Neu5Ac(a2-3)GalNAc(b1-4)GlcNAc
# How it was run: as §1
# [36] = molecular target: Neu5Ac(a2-3)[GalNAc(b1-4)]Gal(b1-4)Glc
# How it was run: as §1
# [37] = molecular target: Neu5Ac(a2-3)[GalNAc(b1-4)]Gal(b1-4)GlcNAc
# How it was run: as §1
# [38] = molecular target: Neu5Ac(a2-3)[GalNAc(b1-4)]Gal(b1-4)GlcNAc(b1-3)GalNAc
# How it was run: as §1
# [39] = molecular target: Neu5Ac(a2-3)[Neu5Ac(a2-6)]GalNAc
# How it was run: as §1
# [40] = molecular target: Neu5Ac(a2-6)Gal
# How it was run: as §1
# [41] = molecular target: Neu5Ac(a2-6)Gal(b1-3)GlcNAc(b1-3)[Gal(b1-4)GlcNAc(b1-6)]Gal(b1-4)Glc
# How it was run: as §1
# [42] = molecular target: Neu5Ac(a2-6)Gal(b1-4)Glc
# How it was run: as §1
# [43] = molecular target: Neu5Ac(a2-6)Gal(b1-4)GlcNAc
# How it was run: as §1
# [44] = molecular target: Neu5Ac(a2-6)Gal(b1-4)GlcNAc(b1-2)Man
# How it was run: as §1
# [45] = molecular target: Neu5Ac(a2-6)Gal(b1-4)GlcNAc(b1-2)Man(a1-3)Man(b1-4)GlcNAc(b1-4)GlcNAc
# How it was run: as §1
binder,measurement,setting,value
B1,glycan array binding signal (z-score),[1],-0.153
same,glycan array binding signal (z-score),[2],-0.19
same,glycan array binding signal (z-score),[3],-0.261
same,glycan array binding signal (z-score),[4],-0.181
same,glycan array binding signal (z-score),[5],-0.318
same,glycan array binding signal (z-score),[6],-0.271
same,glycan array binding signal (z-score),[7],-0.246
same,glycan array binding signal (z-score),[8],-0.063
same,glycan array binding signal (z-score),[9],0.528
same,glycan array binding signal (z-score),[10],0.33
same,glycan array binding signal (z-score),[11],2.06
same,glycan array binding signal (z-score),[12],1.02
same,glycan array binding signal (z-score),[13],0.009
same,glycan array binding signal (z-score),[14],0.088
same,glycan array binding signal (z-score),[15],0.078
same,glycan array binding signal (z-score),[16],-0.238
same,glycan array binding signal (z-score),[17],-0.211
same,glycan array binding signal (z-score),[18],-0.208
same,glycan array binding signal (z-score),[19],-0.277
same,glycan array binding signal (z-score),[20],0.15
same,glycan array binding signal (z-score),[21],-0.266
same,glycan array binding signal (z-score),[22],-0.189
same,glycan array binding signal (z-score),[23],-0.25
same,glycan array binding signal (z-score),[24],-0.26
same,glycan array binding signal (z-score),[25],-0.222
same,glycan array binding signal (z-score),[26],-0.022
same,glycan array binding signal (z-score),[27],-0.191
same,glycan array binding signal (z-score),[28],-0.163
same,glycan array binding signal (z-score),[29],-0.188
same,glycan array binding signal (z-score),[30],-0.184
same,glycan array binding signal (z-score),[31],-0.175
same,glycan array binding signal (z-score),[32],-0.163
same,glycan array binding signal (z-score),[33],-0.271
same,glycan array binding signal (z-score),[34],-0.25
same,glycan array binding signal (z-score),[35],-0.274
same,glycan array binding signal (z-score),[36],-0.285
same,glycan array binding signal (z-score),[37],-0.268
same,glycan array binding signal (z-score),[38],-0.185
same,glycan array binding signal (z-score),[39],-0.275
same,glycan array binding signal (z-score),[40],-0.272
same,glycan array binding signal (z-score),[41],-0.258
same,glycan array binding signal (z-score),[42],-0.24
same,glycan array binding signal (z-score),[43],-0.257
same,glycan array binding signal (z-score),[44],-0.287
same,glycan array binding signal (z-score),[45],-0.265
